# Source: PubChem BioAssay AID1963965 (Molecular Pharmacology Branch, DTP, NCI, 2024)
# Certain results were filed several times, with different values. The other results are left out here. An entry can have further records. The records of an entry repeat one measurement in other runs, samples, wells, individuals or studies. Marks such as (2×) stand for listed records that agree.
# Test system: 996289-038-R-J1-PDC spheroid viability
# Assay: Anticancer human tumor 996289-038-R-J1-PDC patient-derived colon adenocarcinoma cell line growth inhibition [PI3K]
# Settings: spheroids with HUVEC and MSC; for viability, T/C: stronger effect = lower value
# Description: Combinatorial screen of targeted agents with the PI3K inhibitors inavolisib, alpelisib, duvelisib, and copanlisib in multi-cell type tumor spheroids
# A high-throughput screen of multi-cell type tumor spheroids was designed to identify active combinations of targeted small molecules and PI3K pathway inhibitors. Complex spheroids include a stromal component modeled by human endothelial cells (HUVEC) and fibroblasts modeled by human mesenchymal stem cells (MSCs). The concentration ranges selected for each drug and investigational agent were based upon clinically achievable concentrations if the clinical Cmax of the agent was known.
# Compounds. The drugs and investigational agents: inavolisib (NSC800729), alpelisib (NSC765974), duvelisib (NSC772469), copanlisib (NSC816437), ipatasertib (NSC767898), afuresertib (NSC778305), talazoparib (NSC767125), sapanisertib (NSC764658), selumetinib (NSC741078), tovorafenib (DAY101, NSC766906), vemurafenib (NSC761431), ravoxertinib (NSC781343), sotorasib (NSC818433), MRTX1133 (NSC 836407), abemaciclib (NSC 768073), palbociclib (NSC758247), venetoclax (NSC 766270), SY5609 (NSC837396), enzalutamide (NSC755605), and darolutamide (NSC825331), were obtained from the National Cancer Institute (NCI) Developmental Therapeutics Program Chemical Repository. The FDA-approved anticancer drug set is available from the NCI Developmental Therapeutics Program. […] The stock solutions were prepared in dimethyl sulfoxide (DMSO, Sigma-Aldrich, St. Louis, MO, cat. D2650) at 800-fold the tested concentration and stored at -70 degrees C prior to their use. All drugs and investigational agents were tested over a range starting from a high concentration at or near the clinical Cmax and decreasing in half-log increments. If the clinical Cmax for an agent had not been determined, the highest concentration tested was 10 microM.
# Cell Culture. All cells were maintained in an incubator at 37 degrees C and 5% CO2 with 95% humidity. The PDC lines were cultured according to standard operating procedures established by the NCI PDMR (https://pdmr.cancer.gov/sops/default.htm). All PDCs were thawed and cultured in Matrigel-coated flasks prepared with a working solution of 1X Ham's F-12 nutrient mix, without supplementation (Invitrogen, Waltham, MA, cat. 11765054), 100 U/mL penicillin-streptomycin (Invitrogen, cat. 15140122), and 2.5% Matrigel (Corning Inc., Corning, NY, cat. 354248) for the first three passages. The 354836-022-R-J1-PDC, 475296-252-R-J1-PDC, and 997726-040-R-J2-PDC lines were cultured in 6A media, which includes advanced DMEM/F-12 (Thermo Fisher Scientific, cat. 12634028), 10 mM HEPES (Thermo Fisher Scientific, cat. 15630080), 1X GlutaMAX supplement (Thermo Fisher Scientific, cat. 35050061), 0.1 mg/mL primocin (InvivoGen, San Diego, CA, cat. ant-pm-2), 10% defined fetal bovine serum, heat inactivated (HyClone Laboratories Inc., Logan, UT, cat. SH30070.03HI), 50% L-WRN conditioned media (ATCC, cat. CRL-3276), 1.25 mM N-Acetyl-L-cysteine (Sigma-Aldrich, cat. A9165), 10 mM nicotinamide (Sigma-Aldrich, cat. N0636), 1X B-27 supplement (Thermo Fisher Scientific, cat. 17504044), 1X N-2 supplement (Thermo Fisher Scientific, cat. 17502048), and 10 microM Y-27632 dihydrochloride (Tocris Bioscience, Bristol, United Kingdom, cat. 1254). The 624824-186-R-J2-PDC line was cultured in 6C/Colon 1B media, which includes all 6A media components plus 50 ng/mL human EGF recombinant protein (Thermo Fisher Scientific, cat. PHG0311). […]
# 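Also: spheroids exposed to compounds for seven days before viability read.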
# 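For viability, T/C in this document: luminescence used as a proxy for viable cell amount; percent viability relative to DMSO vehicle control as 100%.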
smiles,measurement,setting,value
C=CC(=O)N1CCN(c2nc(=O)n(-c3c(C)ccnc3C(C)C)c3nc(-c4c(O)cccc4F)c(F)cc23)C(C)C1 (stereo unspecified),"viability, T/C",compound alone 0.316 µM,"99, 117, 98, 125%"
CC(Nc1ccc2c(c1)OCCn1cc(N3C(=O)OCC3C(F)F)nc1-2)C(N)=O (stereo unspecified),"viability, T/C",compound alone 0.01 µM,"97.1, 96.6, 112, 102 (2×), 106 (2×), 83.6%"
CC(=O)c1c(C)c2cnc(Nc3ccc(N4CCNCC4)cn3)nc2n(C2CCCC2)c1=O,"viability, T/C",compound alone 0.00316 µM,"114, 109, 95.5, 88.8%"
CNC(=O)c1ccc(N2C(=S)N(c3ccc(C#N)c(C(F)(F)F)c3)C(=O)C2(C)C)cc1F,"viability, T/C",compound alone 3.16 µM,"95.1, 83.7, 111, 107%"
same,"viability, T/C",compound alone 10 µM,"97.5, 87.1, 125, 93%"
Cn1ncnc1[C@H]1c2n[nH]c(=O)c3cc(F)cc(c23)N[C@@H]1c1ccc(F)cc1,"viability, T/C",compound alone 0.000316 µM,"107, 90.6, 91.4, 123%"
CC(Nc1ncnc2nc[nH]c12)c1cc2cccc(Cl)c2c(=O)n1-c1ccccc1 (stereo unspecified),"viability, T/C",compound alone 1 µM,"99.4, 107, 91.2, 86.7, 100, 96.1, 80.6, 96.4%"
CC1(C)CCC(Nc2ncc(C(F)(F)F)c(-c3c[nH]c4c(P(C)(C)=O)c(C#N)ccc34)n2)CN1 (stereo unspecified),"viability, T/C",compound alone 0.0316 µM,"108, 106, 90.7, 116%"
Cc1nc(NC(=O)N2CCCC2C(N)=O)sc1-c1ccnc(C(C)(C)C(F)(F)F)c1 (stereo unspecified),IC50,"compound alone, run of 06/12/2023","> 10 µM, 6.9 µM, 6.8 µM, 6.38 µM"
C[C@@H](NC(=O)c1ncnc(N)c1Cl)c1ncc(C(=O)Nc2cc(C(F)(F)F)c(Cl)cn2)s1,"viability, T/C",compound alone 3.16 µM,"111, 105, 154, 112%"
CC1(C)CCC(CN2CCN(c3ccc(C(=O)NS(=O)(=O)c4ccc(NCC5CCOCC5)c([N+](=O)[O-])c4)c(Oc4cnc5[nH]ccc5c4)c3)CC2)=C(c2ccc(Cl)cc2)C1,"viability, T/C",compound alone 0.0316 µM,"85.5, 92.9, 109, 113%"
